Source: the supplement of paper PMC11417369
This is one part of the list.

System: PfAP2-HC AP2 domain (GST-tagged)
Experiment: gcPBM binding intensity (ln(normalized median fluorescence intensity)); higher = stronger DNA binding
How it was run: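 GST-fused DNA-binding domains of P. falciparum, expressed in E. coli, were applied at about 25 μg on average for 1 h to an Agilent 4 × 180k array of primer-extended double-stranded 36-bp intergenic genomic probes and negative controls. Binding intensity is the highest Masliner-normalised natural-log median intensity across replicate spots of either probe orientation, measured with Alexa488 anti-GST antibody and a 488 nm scan.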

Sequence	gcPBM binding intensity (ln)
ATATTTATTTTAATTTTTCTATATAAACTATTATGA [CACACA_negctrl_site739]	9.4
AGGAAGGAAATAAATCAACACACATATATTATATAT [CACACA_site8678]	9.87
TTTCTAAGAAAAAAAAAAAAAAAAAAAAAGATACAA [GTGCAC_negctrl_site525]	9.24
TATATATATTATATATGTACATATTGTATATTTTTG [XGTACX_site4564]	9.74
TTAAAATATGTAGCTACACACACATAAACAAAATAA [CACACA_site8244]	10.2
TAATTATAATAATAACGTACATATATAAAATGGTGA [XGTACX_site8434]	9.76
TTTTTTTTTCTGAATTTATAATTCAAAAATATATAT [CACACA_negctrl_site300]	9.22
TGTAGTCTGGAGAAAAGTACACAGTATCTGGTAGCT [XGTACX_site2012]	9.54
TATATATATATATAGGTGCTATAATTTATATACACA	9.57
AACATAATATCATATACACACAAAAATATTGAAATA [CACACA_site2160]	10.1
ATAATACCCATTATCTTACAACAAAATGCAAACAAA [CACACA_negctrl_site1037]	9.6
TTATATAACTTTTCTAGTACTTGTATAAATTCCTAC [XGTACX_site3685]	9.73
AAAAAAAAAGAAAAACGTACGTTTATTTAATATATA [XGTACX_site4018]	9.7
AAGAACATATTATATACATGCATAATTCGATAGATT [TGCATGCA_site882]	9.7
AAAATTAGATTATGCACACACACTTAAAAATAATAA [CACACA_site1975]	10.2
ATATATAAGAACATATATATTGGAAATATTGAATTT [XGTACX_negctrl_site121]	9.65
TAATAATAAAAAATACGTACATATTATTTATATATG [XGTACX_site853]	9.63
CATTTTATTCTATATGCATGTTAAAAAATGTGTTGA [TGCATGCA_site128]	9.49
AATAAAAATATTATATGTACATATTTTAATATATAT [XGTACX_site1259]	9.58

Sequence	gcPBM binding intensity (ln)
TTATGGTATAAAAAAATACACACTTATATATATTCT [CACACA_site488]	9.72
TTTTATTTTTTCTATACATGCATGTCCAATTTTCTT [TGCATGCA_site304]	10.1
AAAAAAAAAAAAAACACACATACACGCCCACCCATA [CACACA_site3391]	10.4
GTTTTTTTATAAAATTTTTATATAATTCTTTTATAA [CACACA_negctrl_site1605]	9.62
TTTATTATATGCACACGTACATATAATATATATATA [XGTACX_site4108]	9.63
TTTGCAACATATAAAAGTACAAATAATATATTTATT [XGTACX_site890]	9.45
ATAATAAATCATCATATTACATTTATCTTTGTTGGA [CACACA_negctrl_site849]	9.48
TACTTATTTTTATAGCATTTCACGGAGGTAGTAATA [CACACA_negctrl_site468]	9.47
AACTGTAATTTTATACGTACATAAATAATATTATAT [XGTACX_site4277]	9.54
AGCAGTTTTTTTTTTTTTTTTTTTTTTATTAAAAGC [XGTACX_negctrl_site392]	9.46
TGTTTGATGGTACACGTACACACCTTGCAAATATTT [CACACA_site888]	9.88
AATATAAAATAGAAAAATGAAAAAAAAAAAAAGGGT [CACACA_negctrl_site1263]	9.99
TATATATATTTTAACACACACATATATATATTTATA [CACACA_site2765]	10.1
CAATAAATAATAAATACATGCAAGTATGAAGATATA [TGCATGCA_site859]	9.84
CATGTTATATATATATGTACTAAAAATATAATATAA [XGTACX_site1978]	9.54
AGTGGGATTTTTAATTGTACATAAATAATATCATAA [XGTACX_site4163]	9.5
TTTTTTTTTTTTGGTAGTACATAAATATTTTATGGA [XGTACX_site6851]	9.32
AATAAGAATTAAAAATGTACAAAAAAATGTATTTAT [XGTACX_site8005]	9.65
AAGTATAAAATATTTTGTACTTAAAAAATTATATGG [XGTACX_site2180]	9.5

Sequence	gcPBM binding intensity (ln)
AACAAATTTTTTATTAAACACACAAACATATATATA [CACACA_site8588]	9.8
GCTCATTGAAATTATACACACCAAATATATAAATAT [CACACA_site5385]	9.64
TGTGAATATATCTTTAAAAAGGATAAATAATAATTT [CACACA_negctrl_site507]	9.5
AAAAAAAAAAAGATAAATACAAGTTACACAAAAAAA [GTGCAC_negctrl_site664]	9.64
ACGTTGCGACGCAAGGTGCTTATTTTCTTATAAATA	9.33
ATATAAAATAAAAAAAAAAAAAAAAAAAAAAAAAAA [CACACA_negctrl_site1234]	8.82
TTAATGTTTGAAAGAGTGCACATAACAAAAAAAAAA [GTGCAC_site9623]	9.81
TTTTTGTATCCTTTTAATATTAAATAAAAGGAATGT [CACACA_negctrl_site1468]	9.42
TAATTAAAAAATGAATAAATGAATAAATAAATAAAT [CACACA_negctrl_site838]	9.67
TATGAATATTGCATGTGTACCTATTATCCTTTTAAA [XGTACX_site4311]	9.65
ATAATTATTTTCCCGTGTACTTATTTTTTTCAAGTA [XGTACX_site8843]	9.71
GTAAATAAATAAATAAATAAATATATATATATATAT [CACACA_negctrl_site1737]	9.66
AATAAAAAAAAATTCACACAAAGTTAGATTAACTAT [CACACA_site4224]	9.61
AATGATCAGATATACACACACACAAAAAAAAAAAAA [CACACA_site7806]	10.4
ATTTTTTCCAATTCTTTACCTTAGAAAGGTGTTCAA [CACACA_negctrl_site1401]	9.44
ATATATTTTTATGTAGTGCATTTAAATAATAAATGC	9.47
ATATATATATAATGAAGTACGAAAAAATAAGAAATG [XGTACX_site4001]	9.9
ATTCTAAATAAATGTACACACAAAAATAAATGTATA [CACACA_site1732]	9.82
